The values below come from PubChem BioAssay AID1346428 (National Center for Advancing Translational Sciences (NCATS), 2018).

The campaign covered roughly 48,000 compounds. About 1,200 (2.5%) were called active. Roughly 2% stayed inconclusive and do not appear here.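 Rule for the calls: active = activation of at least 60% and not above a set upper limit (about 1 call in 100 departs from these limits); inconclusive = activation of 40% to 60%, or above that upper limit; inactive = activation under 40%.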 The list shows a part of the results.

UniProt O75388, sequence (O75388 whole entry, looked up): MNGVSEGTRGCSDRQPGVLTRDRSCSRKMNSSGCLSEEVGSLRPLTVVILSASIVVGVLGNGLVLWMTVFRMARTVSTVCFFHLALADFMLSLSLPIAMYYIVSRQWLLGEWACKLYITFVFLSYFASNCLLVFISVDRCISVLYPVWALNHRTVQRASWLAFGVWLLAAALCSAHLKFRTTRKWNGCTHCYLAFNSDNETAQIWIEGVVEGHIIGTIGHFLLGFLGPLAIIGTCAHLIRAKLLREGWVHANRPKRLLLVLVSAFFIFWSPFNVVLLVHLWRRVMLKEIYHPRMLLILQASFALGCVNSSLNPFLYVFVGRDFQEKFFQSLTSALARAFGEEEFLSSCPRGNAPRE

The assay has as its target Probable G-protein coupled receptor 32 (Homo sapiens) (UniProt O75388). As to the kind of experiment: qHTS for Agonists of Human Resolvin D1 Receptor DRV1. Note: 0% is about no effect. To be noted: CHO-K1 GPR32 beta-arrestin PathHunter luminescence, 90 min; at 76.9 µM; active compounds read high; zero percent set by DMSO-only wells. The procedure, abridged:
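Luminescent readout of beta-Gal complementation quantifies ligand-induced beta-arrestin association with GPR32 in CHO-K1 cells; 90 min compound incubation at 37 °C, detection 1 h at room temperature.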
For `COc1cc2[nH]c(=O)n(CCCC(=O)N(C)Cc3ccccc3)c(=O)c2cc1OC`, the activation is inactive: -2.67%.

On to `Cc1ccc(-n2nc(C(=O)N(C)c3ccccc3Cl)c3c4ccccc4n(C)c3c2=O)cc1`, for which the activation was inactive: -1.05%.

For the compound `CCc1ccc(S(=O)(=O)c2cn(C)c3ccc(C)cc3c2=O)cc1`, the activation was inactive: -3.23%.

For the compound `CN1CCN(C(=O)C2CCCCC2)CC1`, the activation was inactive: -5.96%.

As for `Cc1ccc(NC(=O)Cn2cc(S(=O)(=O)Cc3ccccc3)c3ccccc32)cc1C`, the activation was inactive: 11.9%.

Consider `COC(=O)c1cc2occc2n1Cc1nc(-c2ccc(Cl)cc2)oc1C`, for which the activation was inactive: -19.2%.

Regarding `CCOCCCNC(=O)CN1C(=O)CCn2nc(-c3cccn3C)cc21`, the activation is inactive: 27.1%.

With `CSc1ccc(CCNC(=O)C2CCCN(S(=O)(=O)N(C)c3ccc(F)cc3)C2)cc1` (centres undefined), the activation is inactive: 7.01%.

In the case of `CN(C)S(=O)(=O)N(CC(=O)NCCSCc1ccc(Cl)cc1Cl)c1ccccc1`, the activation was inactive: 47.6%.

On to `CCOC(=O)C(Cc1ccccc1)NC(=O)Cn1nnc(-c2ccc(C)cc2)n1` (centres undefined), for which the activation was active: 61.9%.

Turning to `COc1ccc(NC(=O)CN2C(=O)C(c3ccccc3)=NC23CCC(C)CC3)cc1Cl` (centres undefined), the activation was inactive: -11.7%.

As for `N=C(N)SCCc1ccc(CCSC(=N)N)cc1`, the activation was inactive: -1.77%.

As for `COc1ccc(CN(CCN(C)C)c2ncccn2)cc1`, the activation was inactive: -4.43%.

Turning to `O=C1Cc2cc(S(=O)(=O)Nc3cccc(C(F)(F)F)c3)cc3c2N1CCC3`, the activation is inactive: 2.19%.

As to `Cc1cccn2c(=O)cc(COc3cccc(NC(=O)Nc4cccc(Cl)c4)c3)nc12`, the activation is inactive: -9.46%.

On to `CC(C)c1ccc(NC(=O)c2cc(S(=O)(=O)NCCc3ccccc3)ccc2F)cc1`, for which the activation is inactive: -4.01%.

As to `COc1ccc(C(C)C)cc1S(=O)(=O)NCCc1c(C)[nH]c2c(Cl)cccc12`, the activation was inactive: -7.1%.

In the case of `CCSc1ncc(Cl)c(C(=O)Nc2sc(C(C)=O)c(C)c2C(=O)OC)n1`, the activation was inactive: 1.63%.

As for `Cc1ccc2c(c1)c1c(c(=O)n(-c3cccc(Cl)c3)c(=O)n1C)n2C`, the activation is inactive: -6.27%.

Regarding `COc1ccc(CNC(=O)c2ccc(Sc3ccc(Cl)cc3)c(NC(C)=O)c2)c(OC)c1`, the activation was inactive: -18.4%.

Turning to `O=C1CN(C(=O)COc2ccc(Cl)cc2Cl)C(c2ccc(F)cc2)c2cc(F)ccc2N1` (centres undefined), the activation is inactive: -12.2%.

As to `COc1ccc(C(=O)c2oc3ccccc3c2NC(=O)c2nc(SC)ncc2Cl)cc1Cl`, the activation was inactive: -1.63%.

For the compound `NCCC(O)(P(=O)(O)O)P(=O)(O)O`, the activation is inactive: 17%.

As for `CCc1cccc(NC(=O)c2c(C)oc3ncnc(N4CCCCC4)c23)c1`, the activation was inactive: -7.62%.

As to `CCOC(=O)c1c(NC(=O)c2cc3nc(-c4ccc(OC)cc4)cc(C(F)(F)F)n3n2)sc(C)c1C`, the activation is inactive: 6.63%.

As for `CCOC(=O)c1nnn(C(CC)C(=O)Nc2c(C)cccc2C)c1C(=O)OCC` (centres undefined), the activation is inactive: -3.34%.

As for `CC(C)c1ccc(Nc2cc(C(=O)NCc3cccs3)c3ccccc3n2)cc1`, the activation is inactive: 21.1%.

As to `CCOC(=O)N1CCc2c(sc(NCc3cccs3)c2C(=O)Nc2cc(OC)ccc2OC)C1`, the activation was inactive: -0.112%.

For `CCN(CC)C(=O)CSc1nnc2[nH]c(=O)cc(C)n12`, the activation was inactive: 12.7%.

Turning to `Cc1ccc(NC(=O)N2CCN(c3nnc(C)c4c(C)n(-c5ccccc5)nc34)CC2)c(Cl)c1`, the activation was inactive: 4.39%.

Consider `CCOc1ccc2nc(N3CCCC(C(=O)NCc4ccc(OC)cc4)C3)sc2c1` (centres undefined), for which the activation is inactive: 4.09%.

Consider `CCOc1ccc(-c2cccc(NS(=O)(=O)c3ccc(Cl)s3)c2)nn1`, for which the activation is inactive: -1.93%.

As to `CCNc1nc(Oc2ccc(OCC(=O)OC)nn2)nc(N2CCOCC2)n1`, the activation is inactive: 9.33%.

On to `CCc1ccccc1NC(=O)CCCN1C(=O)COc2ccc(C)cc21`, for which the activation is inactive: -27.4%.

As to `FC(F)(F)c1ccc(C2=Nc3ccccc3NC(c3cccs3)=N2)cc1`, the activation was inactive: -18.7%.

Consider `COc1ccc(F)cc1NC(=O)C1CCN(c2nc(-c3ccc(OC)c(OC)c3)no2)CC1`, for which the activation was inactive: -6.23%.

Turning to `COc1cccc(C(=O)NC(c2ccc(Cl)cc2)c2cc(Cl)c3cccnc3c2O)c1` (centres undefined), the activation was inactive: -69.3%.

Consider `Cc1ccc(-n2nc(C)c3c(C)cc(=O)n(CC(=O)NCc4ccc(OC(C)C)cc4)c32)cc1`, for which the activation was inactive: 2.48%.

`O=C(COc1ccc(F)cc1)Nc1cccc(OCc2cc(=O)n3ccccc3n2)c1`: the activation is inactive: -9.71%.

For `COc1ccc(Nc2ncc(C(=O)Nc3cc(C)ccc3OC)c3ccccc23)cc1`, the activation was inactive: 8.22%.

Take `Cc1ccc(Cl)cc1NC(=O)Cn1c(=O)oc2cc(S(=O)(=O)N3CCCCCC3)ccc21`: the activation was inactive: 3%.

With `Cn1c(C(=O)NCc2ccc(Cl)cc2)cc2c(=O)n(C)c3ccccc3c21`, the activation was inactive: -7.52%.

With `Cc1ccc2c(c1)c1c(c(=O)n(-c3ccccc3C)c(=O)n1Cc1ccccc1F)n2C`, the activation was inactive: -5.27%.

With `COc1ccc(NC(=O)CCc2c(C)nc3c(-c4ccccc4)c(C)nn3c2C)cc1Cl`, the activation was inactive: 13.6%.

Take `Cc1ccc(OCC(=O)Nc2c(Cl)ccc3nsnc23)cc1C`: the activation was active: 84.5%.

Regarding `Fc1ccc(-n2ncc3c(Nc4ccc(Oc5ccccc5)cc4)ncnc32)cc1`, the activation was inactive: 48.9%.

On to `Cc1cccc2c1-c1sc(C(=O)NCCCN3CCN(c4cccc(Cl)c4)CC3)cc1CO2`, for which the activation was inactive: 9.8%.

As to `COc1ccc(-c2noc(C(C)NC(=O)c3ccco3)n2)cc1` (centres undefined), the activation is inactive: 8.48%.

Turning to `Cc1ccc(NC(=O)c2ccc(=O)n(CC(=O)Nc3cc(C)cc(C)c3)n2)cc1`, the activation is inactive: -11.1%.

Take `COc1cc(C(c2c(C)[nH][nH]c2=O)c2c(C)[nH][nH]c2=O)ccc1OC(=O)c1ccccc1F`: the activation is inactive: -66.3%.

Consider `CC(=O)Nc1cccc(-c2nnc(SCC(=O)c3cc([N+](=O)[O-])ccc3Br)o2)c1`, for which the activation was inactive: -11.4%.

As for `CC(=O)c1cccc(Nc2c3c(nc4nc(-c5cccs5)nn24)CCCC3)c1`, the activation is inactive: -35.5%.

For the compound `CCCN1CCN(CCCNC(=O)c2cnn(-c3ccc(C)cc3)c2-n2cccc2)CC1`, the activation was inactive: -5.98%.

Consider `CC(=O)Nc1ccc(NC(=O)CSc2nnc3c4cc(Br)ccc4n(C)c3n2)cc1`, for which the activation was inactive: 3.69%.

In the case of `COC(=O)c1ccc2oc(=O)c(S(=O)(=O)c3ccc(C)cc3)cc2c1`, the activation is inactive: -4.89%.

`CCCC(=O)Nc1cccc(-c2nc3cc(C)c(C)cc3o2)c1C`: the activation was inactive: 20.1%.

Take `Cc1ccc(CNC(=O)C2CCN(c3nc4ccc(C)cc4[nH]3)CC2)cc1`: the activation is inactive: -23%.

Take `CC(C)c1ccc(Nc2cc(C(=O)NCCc3ccccc3)c3ccccc3n2)cc1`: the activation is active: 84.9%.

As for `O=C(Cn1ncc2c3ccccc3n(Cc3ccc(Cl)cc3)c2c1=O)NCCCc1ccccc1`, the activation is inactive: -0.0509%.

In the case of `COc1ccc(Nc2oc(-c3ccc(COc4ccc(OC)cc4)o3)nc2C#N)cc1`, the activation was active: 71%.

Consider `Cc1ccc(C)c(S(=O)(=O)c2nnn3c2nc(N2CCCC2)c2sccc23)c1`, for which the activation was inactive: -22.6%.

In the case of `CCCCN(CC)c1ncnc2c1sc1nc(N3CCOCC3)c3c(c12)CCCC3`, the activation was inactive: 1.81%.

For `CCc1ccccc1N1CC(c2nc3ccccc3n2CC(C)C)CC1=O` (centres undefined), the activation was inactive: -9.11%.

Consider `CCC(C)NC(=O)C1CCN(C(=O)c2cc3sccc3n2Cc2ccc(Cl)cc2)CC1` (centres undefined), for which the activation was inactive: 7.14%.

On to `CC(C)(C)C1CCc2nc(NC(=O)COc3ccc(F)cc3)sc2C1` (centres undefined), for which the activation is inactive: 18.6%.

Consider `CCC(=O)Nc1ccccc1-c1nc2ccccc2n(C(CC)C(=O)Nc2cccc(C(C)=O)c2)c1=O` (centres undefined), for which the activation is inactive: -40.2%.

For `CCCCN(CC)CCCn1cnc2c([nH]c3ccc(Cl)cc32)c1=O`, the activation was inactive: -3.75%.

As for `CC(C)(C)c1ccc(OCCSc2nc(-c3cccs3)nc3cc(=O)[nH]n23)cc1`, the activation was active: 67.9%.

For `Cc1oc(-c2ccc(C(=O)Nc3ccc(F)cc3F)cc2)nc1COc1ccccc1`, the activation was inactive: -7.89%.

On to `CC(=O)Nc1ccc(-n2cc3c(c2-c2ccc(C)cc2)c(=O)n(C)c(=O)n3C)cc1`, for which the activation was inactive: -8.37%.

On to `COc1cccc(-c2cc(C(=O)NCc3ccccc3)[nH]n2)c1`, for which the activation was inactive: -9.02%.

`CN(C)C(=O)c1ccc2c(c1)N(CC(=O)NCc1ccc(F)cc1)C(=O)C1CCCCN21` (centres undefined): the activation was inactive: -13.9%.

In the case of `Cn1c(SCC(=O)Nc2ccc(F)cc2)nc2c([nH]c3ccccc32)c1=O`, the activation was inactive: -15.8%.

For the compound `CCCC(=O)Oc1c(Sc2ccc(Cl)cc2)c(C)nn1-c1ccccc1`, the activation was inactive: 8.29%.

In the case of `CCOc1nc(NC(=O)NS(=O)(=O)Oc2ccc(Cl)cc2)nc(-c2ccccc2)n1`, the activation is inactive: 23.5%.

With `Cn1cc(C(=O)O)c(=O)c2cc(S(=O)(=O)N3CCCCC3)ccc21`, the activation was inactive: -16.3%.

Turning to `Cc1ccc(CN2C(=O)c3ccccc3S(=O)(=O)c3ccc(C(=O)OCC4CCCO4)cc32)cc1` (centres undefined), the activation was inactive: -27.7%.

Regarding `Cc1ccc(NC(=O)C(Cc2ccccc2)NS(=O)(=O)c2ccc3c(c2)c(=O)n(C)c(=O)n3C)cc1` (centres undefined), the activation was inactive: -1.28%.

Regarding `CCN(C(=O)c1cc(S(=O)(=O)N2CCOCC2)cn1C)c1ccc(OC)cc1`, the activation was inactive: -15.1%.

On to `CCOc1ccc(C(C)C)cc1S(=O)(=O)Nc1cccc(-c2ccc(N3CCOCC3)nn2)c1`, for which the activation was inactive: -1.03%.

Turning to `CC(C)(C)c1ccc(OCC(=O)N(Cc2ccco2)Cc2ccccc2F)cc1`, the activation is inactive: -15.7%.

Take `Cc1cccn2c(=O)c3cc(C(=O)NCCc4ccc(S(N)(=O)=O)cc4)n(C)c3nc12`: the activation is inactive: -0.435%.

In the case of `COc1ccc(OC)c(C2C(C(N)=O)=C(C)Nc3nc(-c4cccc(Cl)c4)nn32)c1` (centres undefined), the activation was inactive: -24.9%.

Regarding `Cc1cc(C(C#N)c2ccc(Cl)cc2)c(Cl)cc1NC(=O)c1cc(I)cc(I)c1O` (centres undefined), the activation was inactive: 12.1%.
